Results from ChEMBL document CHEMBL4888484, “Replenishing the malaria drug discovery pipeline: Screening and hit evaluation of the MMV Hit Generation Library 1 (HGL1) against asexual blood stage Plasmodium falciparum ,using a nano luciferase reporter read-out” (2022).
About 540 (0.36%) of roughly 150,000 compounds showed an effect of 50% or more. The list shows a part of the results.

These compounds were tested on Plasmodium falciparum (assay: Primary screen in NF54 nanoGlo assay, in single point, at 2uM, 72h; a lower Z score goes with more inhibition). Details: timepoint 72 hour.
Assay type: functional, Erythrocyte
With `C[C@H](Nc1ncc(F)c(-c2ccsc2)n1)C(=O)NCCF` the “% Inhibition” value was -1% and the Z score was 0.13. `COC[C@H]1CCCN1S(=O)(=O)N1CCC(c2cc[nH]n2)CC1` was tested, and the “% Inhibition” value was -7% and the Z score was 0.81. For `Cc1c2c(=O)n(-c3nc4ccccc4s3)n(Cc3ccc(F)cc3)c2cc(=O)n1N1CCOCC1`, the “% Inhibition” value was 30% and the Z score was -3.45. `c1cnc2c(c1)CN(c1cc(C3CC3)nc(C3CC3)n1)CCO2` was tested, and the “% Inhibition” value was 0% and the Z score was -0.02. In the case of `COc1ccc(-c2cn3cc(C(=O)N4CCC[C@@H]4C)nc3c(=O)n2C)c(F)c1`, the “% Inhibition” value is reported as 17% and the Z score is reported as -3.3. For `CCN(CC)C(=O)N1C[C@@H]2C[C@H](NS(=O)(=O)c3cccnc3)[C@H]1C2`, the “% Inhibition” value was 34% and the Z score was -3.89. For `CC(C)(C)N1CC[C@H](NC(=O)NCCc2cnc3c(Cl)cnn3c2)C1`, the “% Inhibition” value was -5% and the Z score was 0.85. `Cc1ccc(C(=O)N2CC[C@H](c3nc(C)n[nH]3)[C@H](NC(=O)C3CCOCC3)C2)cc1` was tested, and the “% Inhibition” value was -8% and the Z score was 1.01. In the case of `N#Cc1cnc(NC(=O)c2ccco2)s1`, the “% Inhibition” value is reported as -6% and the Z score is reported as 0.63. With `CC(=O)c1nc(NC(=O)C[C@@H](Cc2ccc(Cl)cc2)C(=O)Nc2nc(C(C)=O)c(C)s2)sc1C` the “% Inhibition” value was -34% and the Z score was 3.99. In the case of `CC(=O)Nc1cccnc1NC(=O)CC1=CCCCC1`, the “% Inhibition” value is reported as -9% and the Z score is reported as 1.64. `O=S(=O)(Cc1ccccc1Cl)N1CCCN2CCC[C@H]2C1` was tested, and the “% Inhibition” value was -5% and the Z score was 0.42. With `COCCNC(=O)c1coc(CN(Cc2cccc(OC)c2)[C@@H](C)C(C)C)n1` the “% Inhibition” value was -17% and the Z score was 2.36. `C=CCN(Cc1nccs1)[C@H]1CCS(=O)(=O)C1` was tested, and the “% Inhibition” value was -8% and the Z score was 1.27. In the case of `COc1ccccc1C(=O)N1CCc2cc(S(=O)(=O)N3CCCC3)ccc21`, the “% Inhibition” value is reported as -2% and the Z score is reported as 0.19. For `CCCn1ncc(C(=O)N2CC(=O)N(CC(F)(F)F)C2)c1C1CC1`, the “% Inhibition” value was 2% and the Z score was -0.27. With `CC(C)N(C(=O)c1ccnn1C(C)C)c1ccc(Br)cn1` the “% Inhibition” value was -1% and the Z score was 0.16. In the case of `O=C1CCC2(CCN(S(=O)(=O)c3cccnc3)CC2)CN1Cc1cccnc1`, the “% Inhibition” value is reported as 4% and the Z score is reported as -0.66. `O[C@H](COCc1ccco1)CN1CCN(c2nccs2)CC1` was tested, and the “% Inhibition” value was -5% and the Z score was 0.89. For `CC(C)[C@@H]1CN(Cc2cccc(C(=O)O)c2)CCCO1`, the “% Inhibition” value was -4% and the Z score was 0.76. `Cc1noc2ncc(NC(=O)CCC3CCC(C4OCCO4)O3)cc12` (centres undefined) was tested, and the “% Inhibition” value was -2% and the Z score was 0.22. For `CCOc1ccnc(NCCc2nc(CC)no2)n1`, the “% Inhibition” value was 11% and the Z score was -1.49. With `Oc1ccc(-c2nccn2-c2cccc3cnccc23)cc1Cl` the “% Inhibition” value was -2% and the Z score was 0.23. For `O=C(c1ccc2ncsc2c1)N1C[C@@H]2CC[C@H]1CN(C1CCOCC1)C2`, the “% Inhibition” value was -8% and the Z score was 1.07. With `Cc1ccc2c(c1)[C@@H](NS(=O)(=O)c1ccc(N)cc1)CO2` the “% Inhibition” value was -3% and the Z score was 0.46. In the case of `Cc1ccccc1CC(=O)N[C@H]1CC(=O)N(CCN2CCOCC2)C1`, the “% Inhibition” value is reported as 1% and the Z score is reported as -0.08. With `Cc1cc(CN(C)C(=O)c2cc(C)sc2C)no1` the “% Inhibition” value was -12% and the Z score was 2.1. For `CCn1ncc(NC(=O)c2cc(C)on2)c1C`, the “% Inhibition” value was 0% and the Z score was 0.03. In the case of `Cc1nnc(-c2cc(S(=O)(=O)N3CCN(C(=O)c4ccco4)CC3)c[nH]2)o1`, the “% Inhibition” value is reported as -8% and the Z score is reported as 1.52. In the case of `C[C@@H](CC(=O)N(C)C)c1ccccc1F`, the “% Inhibition” value is reported as -2% and the Z score is reported as 0.28. For `CO[C@H]1C[C@H]2CC(NCc3ccc(C)nc3)C[C@H]2C1` (some centres undefined), the “% Inhibition” value was -1% and the Z score was 0.19. `O[C@H](COc1ccccc1-n1cccn1)CN1CCCC1` was tested, and the “% Inhibition” value was 1% and the Z score was -0.08. For `Cc1nn(C)c2nc(NCCn3cc(Cl)cn3)sc12`, the “% Inhibition” value was -6% and the Z score was 1.07. With `CN(C(=O)c1coc(CNC(=O)OC(C)(C)C)c1)c1ccccc1` the “% Inhibition” value was -16% and the Z score was 2.18. For `Cc1c(Cl)ccc2c1NC(=O)[C@]21[C@@H](C(=O)c2ccccc2)[C@]2(C(=O)Nc3ccccc32)[C@@H]2CCCN21`, the “% Inhibition” value was 9% and the Z score was -1.35. `C[C@@H](CC#N)N(C)C(=O)C(=O)Nc1nc(-c2ccccn2)cs1` was tested, and the “% Inhibition” value was -15% and the Z score was 2.42. `OCc1ccc(CN(CC2CCN(C3Cc4ccccc4C3)CC2)C[C@H]2CCCO2)o1` was tested, and the “% Inhibition” value was -10% and the Z score was 0.92. In the case of `COc1cccc(NC(=O)Cn2c(N3CCC(C)CC3)nc(C)cc2=O)c1`, the “% Inhibition” value is reported as -5% and the Z score is reported as 0.79. With `O=C(c1cccc2[nH]c(C(F)F)nc12)N1CCO[C@]2(CCOC2)C1` the “% Inhibition” value was 1% and the Z score was -0.17. In the case of `COc1cnc(NC(=O)N[C@H](c2ccncc2)C2CC2)s1`, the “% Inhibition” value is reported as -3% and the Z score is reported as 0.67. With `Cc1ccccc1[C@H]1CCCN(C(=O)CCn2nnnc2CN2CCOCC2)C1` the “% Inhibition” value was -13% and the Z score was 1.49. `COc1ccc(NC(=O)c2ccccc2Nc2nc(-c3ccccc3)c3cc(Br)ccc3n2)cc1` was tested, and the “% Inhibition” value was -13% and the Z score was 2.03.
